#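 The compound was tested at five concentrations on cells cultured in 96-well plates, with a 48-hour exposure period. GI50 is the concentration that inhibits growth by half. At the TGI there is no net growth.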
# Test system: NCI-H322M lung
# Test: DTP human tumour cell line panel, 48 h
SMILES,GI50,TGI
COC(=O)c1c(C(=O)OC)c2ccc3c4ccccc4ccc3n2c1C(=O)C(C)Br (centres undefined),> 100 µM,> 100 µM
C=C1CC[C@@H]2[C@]3(C)COC(c4ccco4)O[C@@H]3CC[C@@]2(C)[C@@H]1C/C=C1/C(=O)OCC1OC(C)=O (some centres undefined),25.2 µM,> 100 µM
